Measured values from the supplement of paper PMC8728848.
The other results are listed elsewhere or left out.

Experiments:
Assay in all cases: glycan array binding signal (z-score within array); higher = stronger binding
Conditions in all cases: glycan notation: IUPAC condensed, linker removed; mutation: R82H, R255H
[1] = molecular target: Neu5Ac(a2-6)GlcNAc(b1-4)GlcNAc
Outline: (§1)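 The binding signal is a Z-score computed within each array and averaged over linkers. Arrays of the same protein sequence at different concentrations or buffers were also averaged together. Data originate from 3228 arrays in the Consortium for Functional Glycomics database, kept only where the protein sequence was available.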

[2] = molecular target: Neu5Ac(a2-6)GlcNAc(b1-4)GlcNAc(b1-4)GlcNAc
Outline: as §1

Neu5Ac(a2-8)Neu5Ac = molecular target: Neu5Ac(a2-8)Neu5Ac
Outline: as §1

[3] = molecular target: Neu5Ac(a2-8)Neu5Ac(a2-3)Gal(b1-3)GalNAc(b1-4)[Neu5Ac(a2-3)]Gal(b1-4)Glc
Outline: as §1

[4] = molecular target: Neu5Ac(a2-8)Neu5Ac(a2-3)Gal(b1-3)GalNAc(b1-4)[Neu5Ac(a2-8)Neu5Ac(a2-3)]Gal(b1-4)Glc
Outline: as §1

[5] = molecular target: Neu5Ac(a2-8)Neu5Ac(a2-3)Gal(b1-4)Glc
Outline: as §1

[6] = molecular target: Neu5Ac(a2-8)Neu5Ac(a2-3)Gal(b1-4)GlcNAc
Outline: as §1

[7] = molecular target: Neu5Ac(a2-8)Neu5Ac(a2-3)[Gal(b1-3)GalNAc(b1-4)]Gal(b1-4)Glc
Outline: as §1

[8] = molecular target: Neu5Ac(a2-8)Neu5Ac(a2-3)[GalNAc(b1-4)]Gal(b1-4)Glc
Outline: as §1

[9] = molecular target: Neu5Ac(a2-8)Neu5Ac(a2-8)Neu5Ac
Outline: as §1

[10] = molecular target: Neu5Ac(a2-8)Neu5Ac(a2-8)Neu5Ac(a2-3)Gal(b1-4)Glc
Outline: as §1

[11] = molecular target: Neu5Ac(a2-8)Neu5Ac(a2-8)Neu5Ac(a2-3)[Gal(b1-3)GalNAc(b1-4)]Gal(b1-4)Glc
Outline: as §1

[12] = molecular target: Neu5Ac(a2-8)Neu5Ac(a2-8)Neu5Ac(a2-3)[GalNAc(b1-4)]Gal(b1-4)Glc
Outline: as §1

[13] = molecular target: Neu5Ac(a2-8)Neu5Ac(a2-8)Neu5Ac(a2-8)Neu5Ac(a2-3)[GalNAc(b1-4)]Gal(b1-4)Glc
Outline: as §1

[14] = molecular target: Neu5Ac(a2-8)Neu5Gc(a2-3)Gal(b1-4)GlcNAc
Outline: as §1

[15] = molecular target: Neu5Ac(b2-6)Gal(b1-4)GlcNAc
Outline: as §1

Neu5Ac(b2-6)GalNAc = molecular target: Neu5Ac(b2-6)GalNAc
Outline: as §1

[16] = molecular target: Neu5Ac9Ac(a2-3)Gal(b1-3)GlcNAc
Outline: as §1

[17] = molecular target: Neu5Ac9Ac(a2-3)Gal(b1-4)GlcNAc
Outline: as §1

[18] = molecular target: Neu5Ac9Ac(a2-6)Gal(b1-4)GlcNAc
Outline: as §1

[19] = molecular target: Neu5Gc(a2-3)Gal(b1-3)GlcNAc
Outline: as §1

[20] = molecular target: Neu5Gc(a2-3)Gal(b1-3)[Fuc(a1-4)]GlcNAc
Outline: as §1

Neu5Gc(a2-3)Gal(b1-4)Glc = molecular target: Neu5Gc(a2-3)Gal(b1-4)Glc
Outline: as §1

[21] = molecular target: Neu5Gc(a2-3)Gal(b1-4)GlcNAc
Outline: as §1

[22] = molecular target: Neu5Gc(a2-3)Gal(b1-4)GlcNAc(b1-3)Gal(b1-4)GlcNAc(b1-2)Man(a1-3)[Neu5Gc(a2-3)Gal(b1-4)GlcNAc(b1-3)Gal(b1-4)GlcNAc(b1-2)Man(a1-6)]Man(b1-4)GlcNAc(b1-4)GlcNAc
Outline: as §1

[23] = molecular target: Neu5Gc(a2-3)Gal(b1-4)[Fuc(a1-3)]GlcNAc
Outline: as §1

[24] = molecular target: Neu5Gc(a2-6)Gal(b1-4)GlcNAc
Outline: as §1

Neu5Gc(a2-6)GalNAc = molecular target: Neu5Gc(a2-6)GalNAc
Outline: as §1

[25] = molecular target: Neu5Gc(a2-8)Neu5Ac(a2-3)Gal(b1-4)GlcNAc
Outline: as §1

[26] = molecular target: Neu5Gc(a2-8)Neu5Gc(a2-3)Gal(b1-4)GlcNAc
Outline: as §1

[27] = molecular target: Neu5Gc(a2-8)Neu5Gc(a2-3)Gal(b1-4)GlcNAc(b1-3)Gal(b1-4)GlcNAc
Outline: as §1

[28] = molecular target: Neu5Gc(a2-8)Neu5Gc(a2-6)Gal(b1-4)GlcNAc
Outline: as §1

[29] = molecular target: Neu5Gc(b2-6)Gal(b1-4)GlcNAc
Outline: as §1

B1: Gal 8 (Mus musculus), Q9JL15 (protein)
chain: MGGSHHHHHHGMASMLSLNNLQNIIYNPIIPYVGTITEQLKPGSLIVIRGHVPKDSERFQVDFQLGNSLKPRADVAFHFNPHFKRSSCIVCNTLTQEKWGWEEITYDMPFRKEKSFEIVFMVLKNKFQVAVNGRHVLLYAHRISPEQIDTVGIYGKVNIHSIGFRFSSASALPHTLGDLQSMETSALGLTQINRENIQKPGKLQLSLPFEARLNASMGPGRTVVIKGEVNTNARSFNVDLVAGKTRDIALHLNPHLNVKAFVRNSFLQDAWGEEERNITCFPFSSGMYFEMIIYCDVREFKVAINGVHSLEYKHRFKDLSSIDTLSVDGDIRLLDVRSW
glycan array binding signal (z-score) [1]: -0.323
glycan array binding signal (z-score) [2]: -0.275
glycan array binding signal (z-score) (Neu5Ac(a2-8)Neu5Ac): -0.216
glycan array binding signal (z-score) [3]: -0.246
glycan array binding signal (z-score) [4]: -0.279
glycan array binding signal (z-score) [5]: -0.187
glycan array binding signal (z-score) [6]: -0.278
glycan array binding signal (z-score) [7]: -0.279
glycan array binding signal (z-score) [8]: -0.268
glycan array binding signal (z-score) [9]: -0.265
glycan array binding signal (z-score) [10]: -0.253
glycan array binding signal (z-score) [11]: -0.239
glycan array binding signal (z-score) [12]: -0.27
glycan array binding signal (z-score) [13]: -0.26
glycan array binding signal (z-score) [14]: -0.268
glycan array binding signal (z-score) [15]: -0.267
glycan array binding signal (z-score) (Neu5Ac(b2-6)GalNAc): -0.275
glycan array binding signal (z-score) [16]: 0.235
glycan array binding signal (z-score) [17]: -0.275
glycan array binding signal (z-score) [18]: -0.254
glycan array binding signal (z-score) [19]: -0.22
glycan array binding signal (z-score) [20]: -0.233
glycan array binding signal (z-score) (Neu5Gc(a2-3)Gal(b1-4)Glc): -0.133
glycan array binding signal (z-score) [21]: -0.335
glycan array binding signal (z-score) [22]: -0.254
glycan array binding signal (z-score) [23]: -0.215
glycan array binding signal (z-score) [24]: -0.251
glycan array binding signal (z-score) (Neu5Gc(a2-6)GalNAc): 0.261
glycan array binding signal (z-score) [25]: -0.28
glycan array binding signal (z-score) [26]: -0.259
glycan array binding signal (z-score) [27]: -0.284
glycan array binding signal (z-score) [28]: -0.279
glycan array binding signal (z-score) [29]: -0.199
